Results from the supplement of paper PMC11417369.
± gives the standard deviation of the averaged measurements. Some of the results follow.

System: PfAP2-EXP AP2 domain (GST-tagged)
Experiment: gcPBM binding intensity (ln(normalized median fluorescence intensity)); higher = stronger DNA binding
How it was run: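 The binding buffer was 1× PBS containing 1% milk, 0.2 mg/ml BSA, 0.5% salmon testes DNA and 0.03% Triton X-100. In it, GST-tagged P. falciparum DNA-binding domains expressed in E. coli were applied for 1 h to an Agilent 4 × 180k array of primer-extended double-stranded 36-bp intergenic genomic probes plus negative controls. Binding intensity, read with Alexa488 anti-GST antibody and a 488 nm scan, is the highest Masliner-normalised natural-log median intensity across replicate spots of either probe orientation.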

Sequence | gcPBM binding intensity (ln)
AAATAAAATCATAATGTGCGCATATAAATTTGTAGG [GTGCAC_site9662] | 9.03 ± 0.39
AAGGTAGATATATTTAGTACGTAATTTTTTTTTTTT [XGTACX_site7288] | 8.28 ± 0.43
ATATATATATATGAAAGTACACATCTATTTTTTCTT [XGTACX_site6059] | 10 ± 0.28
CAAACAAATTGTGAAACACACATATATATATATATA [CACACA_site2001] | 10.2 ± 0.29
AACGTATTATTTATCTGTACAAAATAATAACGTATT [XGTACX_site813] | 8.48 ± 0.42
TAAATAAAAATACAGTGTACTTTTTTCTATTTAAAA [XGTACX_site3288] | 8.09 ± 0.23
ATCCAAATTAATAATAGTACTTTTAAGTCCTATGTA [XGTACX_site2452] | 8.16 ± 0.3
TTTTGTTTTTTCAATGTGCACTTAGGATGTTTTTAT [GTGCAC_site9565] | 9.01 ± 0.29
GATATAAACGTATATGTACATATATATATATATATA [GTGCAC_negctrl_site186] | 10.2 ± 0.41
TTGGAGTTCATATGTGGTACACATTTAAATATATTT [XGTACX_site5582] | 8.49 ± 0.32
ATCATGGAAAAAACAAATGGGCTACATTACCTTTTG [GTGCAC_negctrl_site487] | 8.34 ± 0.43
ATAATAAATGTCTTCAATGAAGTGGAAATGCTGTTA [TGCATGCA_negctrl_site238] | 8.63 ± 0.37
ATATATACATAGAATTGTACATAATTTATGTTCATT [XGTACX_site7426] | 8.28 ± 0.34
TATATACAAATATGTACACACATTACAGATGTACAT [CACACA_site6586] | 8.54 ± 0.26
TAGAAAAAATAAAATAGTACACATCCAAAAAAAAAA [XGTACX_site7829] | 8.56 ± 0.36
CCAAACAAAAAAAAAAGTACATAAAACACCTATTTG [XGTACX_site5645] | 8.68 ± 0.43
AATATATAAATATATACACACAAAAACATATATATA [CACACA_site1318] | 8.63 ± 0.35
ATAATTAGGGTGTATTTCATTTCATTTCATTTTATT [CACACA_negctrl_site1418] | 8.74 ± 0.51
TTTTATTCATCATATTGTACATTCTTGTATTTATAG [XGTACX_site8534] | 8.71 ± 0.36

Sequence | gcPBM binding intensity (ln)
ATATACTTACATATTACACACAATATTTTTAAATGG [CACACA_site5916] | 8.47 ± 0.49
TTGTATATACTATACACACACATACATACATACATA [CACACA_site814] | 8.62 ± 0.39
TATTTATAATTAAATACACACATATATTATAGATTT [CACACA_site6435] | 8.2 ± 0.38
CTTTTGCCCAAAAAGGTACACACCACAAAGTACATA [CACACA_site8169] | 8.89 ± 0.54
ACCCATATTCTTTTTACACACTTGAATAAAAAATAT [CACACA_site4797] | 8.59 ± 0.36
GAGATATAAAAGTGTACACATATTGTTATCCATATT [CACACA_site5441] | 8.61 ± 0.26
TCCCTGATGTTATTTAATATACCATAAAAAAAAAAA [CACACA_negctrl_site1472] | 8.21 ± 0.4
AATAAAAAATAAAAAAGTACATGATGAAAAGGTTTA [XGTACX_site7615] | 8.72 ± 0.44
TATATATATATATATACATGCATACAATTTTATGAG [TGCATGCA_site466] | 10.2 ± 0.29
ATCTCAAATATAATAAATTATTAGGTATATATATAT [CACACA_negctrl_site1828] | 9.89 ± 0.16
CACACTTTATAATGTTGTACGATACATTATACCAAA [XGTACX_site941] | 8.65 ± 0.38
TCTTGTTATAATAATCAATATATGGGTATACTTATG [CACACA_negctrl_site1618] | 8.39 ± 0.44
AAAAGGATTTTTTATACACACACTAACTAATGTATA [CACACA_site2356] | 8.23 ± 0.43
AAAAAAATAAATAAGACACACACAAAAAAAAAAAAA [CACACA_site8404] | 8.62 ± 0.45
TAAATAATAATAAAATGTACATTATATATGTATATG [XGTACX_site8672] | 8.44 ± 0.36
TTTTTTTTTTTTTTCTGTACTGATACTTATAGAGTT [XGTACX_site4736] | 8.34 ± 0.57
TCCTGTTGAGAATGGCGTACATATAAATATTATATA [XGTACX_site1841] | 8.35 ± 0.37
TTTCCTCATTTTATCATACACACTTGTTTATATGTG [CACACA_site8202] | 8.66 ± 0.47
TTTTTTCTTTTTATAACACACAGGTGAAAAATAATA [CACACA_site1850] | 8.4 ± 0.4

Sequence | gcPBM binding intensity (ln)
AAATAATAAATATATCGTACAAATATCATATATAAA [XGTACX_site2771] | 8.32 ± 0.38
CAGGTTCTTATATAGTGTACTATAGACATTCAATTG [XGTACX_site7239] | 8.46 ± 0.28
TATTACTTTATATATACACACATATAACATAAATGC [CACACA_site3948] | 8.5 ± 0.3
ATATATATATATATATGTACATACAATTATATTCTC [XGTACX_site1133] | 10.2 ± 0.29
TACATAAATTTTAATACATGCAAATAAAATATATAA [TGCATGCA_site131] | 8.88 ± 0.4
AAAAATCATTTAAGAACACACAAATATTTCCATTAA [CACACA_site1488] | 8.18 ± 0.48
AATCTTCTTAATTGTAGTACACAATTTATAAACAAA [XGTACX_site8706] | 8.61 ± 0.3
AAAAAAAAAAAAAACACACACACATAGACCTCCAAT [CACACA_site3563] | 8.71 ± 0.57
ATAACGAACACTATTACACACATACATACATATGTA [CACACA_site5092] | 8.81 ± 0.41
TTTTTTGTTACAACAGTGCAAAAAAACCTTAATGTT | 8.4 ± 0.19
ATAAAAAATATCACATAAAATAAAAAAAGAAAGGAT [XGTACX_negctrl_site294] | 9.06 ± 0.52
TTTTAAAAAAAAAAAAAATAAGATAAAATTAAATAA [GTGCAC_negctrl_site367] | 8.11 ± 0.54
ATATATAAAAATAAATGTACATATTCATATGATGAT [XGTACX_site3411] | 8.62 ± 0.4
TATATATAAAAATATACACACTGTATTATTGTAATA [CACACA_site5959] | 8.23 ± 0.48
TATATATATACAGTAGTGCATATATTTAAAATATAT [GTGCAC_site9999] | 9.14 ± 0.33
TATATACATACATATTGTACTTATAAAGATTAATTT [XGTACX_site2203] | 8.23 ± 0.34
ATATAAGTATATCTATGTACATACAATATAAATGTA [XGTACX_site2153] | 8.46 ± 0.33
AATAGTTATTCCAGGTGTACATAACATATAATTTAC [XGTACX_site1340] | 8.59 ± 0.35
